{
  "source": "PubChem BioAssay AID445",
  "about": "(National Center for Advancing Translational Sciences (NCATS), 2006)",
  "note": "About 40 (0.04%) of roughly 110,000 compounds were called active. Inconclusive means that the source gave no clear call. Such entries were picked first, then a sample of the others. Calls come from the whole dose curve; as a rule, active = well fitted curve in the direction sought with a large enough effect in the signal ratio (not every such curve was filed as active); inconclusive = small, poorly fitted or top-dose-only effect, or a change in a side signal; inactive = flat fitted curve, though single readings scatter; the % refers to the signal ratio. Potencies of inconclusive entries are doubtful fits and often do not repeat. Potency is the fitted concentration of half-maximal effect.",
  "data": [
    {"assay": "IkB Signaling;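 for IkBa stabilization activation: 0% = basal untreated cells and 100% = reference inhibitor full response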", "settings": "ABC-DLBCL IkBa-CBG/CBR dual luciferase ratio (green luciferase fused to IkBa over red control in OCI-Ly3 lymphoma cells), 4 h; IkBa stabilization activation: at 57.1 µM (top of the series), scaled: untreated 0%, proteasome inhibitor 100% unless noted", "procedure,_shortened": "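In this assay, an IκBα–CBG68 fusion accumulates when IKK-driven degradation is blocked; native CBR normalizes for cell number. OCI-Ly3 cells were treated 4 h with compound and doxycycline, then green and red light read after Chroma-Glo addition.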", "values": [
      {"smiles": "COc1ccc(-c2[nH]c(-c3ccc(OC)c(OC)c3)nc2SCC(=O)Nc2ccccc2)cc1", "IkBa stabilization activation": "inconclusive: 16.7% [signal inhibitor]"},
      {"smiles": "Cn1ccc2cc(S(=O)(=O)N3CCCN(C(=O)Nc4ccc(Br)cc4)CC3)ccc21", "IkBa stabilization activation": "inactive: 0.81%"},
      {"smiles": "Cc1ccc(Nc2c(-c3ccc(N(C)C)cc3)nc3ccccn23)cc1", "IkBa stabilization activation": "inconclusive: 9.67% [signal inhibitor]"},
      {"smiles": "C=C(C)COc1ccc(-c2[nH]ncc2Oc2ccccc2OC)c(O)c1", "IkBa stabilization activation": "inconclusive: 5.97% [signal inhibitor]"},
      {"smiles": "CCOc1ccccc1C(=O)N(Cc1ccc(N(C)C)cc1)Cc1ccco1", "IkBa stabilization activation": "inconclusive: 0.874% [signal inhibitor]"},
      {"smiles": "COc1ncc2nc(-c3cccs3)c(=O)n(CCC#N)c2n1", "IkBa stabilization activation": "inactive: -3.72% [at 11.4 µM, scaled: untreated 0%, proteasome inhibitor 100%]"},
      {"smiles": "CCCCOc1cccc(C(=O)N(Cc2ccc(Cl)cc2)C2CCS(=O)(=O)C2)c1", "note": "(stereo not drawn)", "IkBa stabilization activation": "inconclusive: 7.83% [signal inhibitor]"},
      {"smiles": "COc1ccc(CCNC(=O)CSc2nnc(-c3ccc(C)cc3)c(-c3ccc(C)cc3)n2)cc1OC", "IkBa stabilization activation": "inconclusive: 2.53% [signal inhibitor]"},
      {"smiles": "COc1cc2c(cc1NC(=O)CN1C(=O)NC3(CCc4ccccc43)C1=O)oc1ccccc12", "note": "(stereo not drawn)", "IkBa stabilization activation": "inconclusive: 1.82% [signal inhibitor]"},
      {"smiles": "COc1ccc(N(CC(=O)N2c3ccccc3CC2C)S(=O)(=O)c2c(C)noc2C)cc1", "note": "(stereo not drawn)", "IkBa stabilization activation": "inconclusive: 4.47% [signal inhibitor]"},
      {"smiles": "COc1ccc(CNc2nc(-c3cccnc3)nn2C(=O)c2cccs2)cc1", "IkBa stabilization activation": "inactive: 1.06%"},
      {"smiles": "CC(=O)c1ccc(N2CCN(C(=O)CS(=O)(=O)c3cccc4nsnc34)CC2)cc1", "IkBa stabilization activation": "inactive: 0.634%"},
      {"smiles": "COc1ccccc1NC(=O)N1CC=C(c2c[nH]c3ccccc23)CC1", "IkBa stabilization activation": "inconclusive: 7.05% [signal inhibitor]"},
      {"smiles": "CCOc1ccc(C(=O)NCCS(=O)(=O)N2CCN(c3cccc(Cl)c3)CC2)cc1", "IkBa stabilization activation": "inactive: -1.26%"},
      {"smiles": "O=c1c2c(nc3c(-c4cccc5ccccc45)c[nH]n13)CCC2", "IkBa stabilization activation": "inconclusive: 2.85% [signal inhibitor]"},
      {"smiles": "COc1ccc(NC(=O)c2c(NCc3ccc(C)o3)sc3c2CCC(C)C3)cc1", "note": "(stereo not drawn)", "IkBa stabilization activation": "inactive: -1.98%"},
      {"smiles": "CC1CN(C(=O)CCC(=O)NCc2cccs2)c2ccccc2O1", "note": "(stereo not drawn)", "IkBa stabilization activation": "inconclusive: 0.926% [signal inhibitor]"},
      {"smiles": "Cn1c(SCc2cccnc2)nc2cccnc21", "IkBa stabilization activation": "inactive: -1.12%"},
      {"smiles": "COc1cc(NC(=O)C2=C(C)Nc3nnnn3C2c2ccc(SC)cc2)c(OC)cc1Cl", "note": "(stereo not drawn)", "IkBa stabilization activation": "inconclusive: -1.72% [signal inhibitor]"},
      {"smiles": "CCOC(=O)c1ccc(NC(=O)c2nc(S(=O)(=O)Cc3ccccc3)ncc2Cl)cc1", "IkBa stabilization activation": "inactive: -1.94%"},
      {"smiles": "COc1cc(C(=O)Oc2ccccc2N)cc(OC)c1OC", "Potency": "inconclusive: 3.16 µM [signal inhibitor, full curve]"},
      {"smiles": "Cc1nn(CCCC(=O)NCc2ccccc2)c(=O)c2c1sc1ccccc12", "IkBa stabilization activation": "inconclusive: -0.969% [signal inhibitor]"},
      {"smiles": "Cc1ccc(Oc2ccc(-c3nc(N)nc(N)n3)cc2)cc1", "IkBa stabilization activation": "inconclusive: 5.28% [signal inhibitor]"},
      {"smiles": "CCN(C(=O)Cn1nc2c3cc(F)ccc3n(Cc3cccc(C)c3)cc-2c1=O)c1cccc(C)c1", "IkBa stabilization activation": "inconclusive: 2.63% [signal inhibitor]"},
      {"smiles": "CCN(CC)CCOC(=O)c1ccc(NC(=O)c2nn(-c3ccc(C)cc3)c(=O)c3c2c2ccccc2n3C)cc1", "IkBa stabilization activation": "inconclusive: 2.37% [signal inhibitor]"},
      {"smiles": "COc1ncc2nc(CCc3ccccc3)c(=O)n(Cc3cccs3)c2n1", "IkBa stabilization activation": "inactive: 4.22% [at 11.4 µM, scaled: untreated 0%, proteasome inhibitor 100%]"},
      {"smiles": "N#Cc1cc2c(=O)n3ccccc3nc2n(-c2nnc(SCc3ccc(F)cc3)s2)c1=O", "IkBa stabilization activation": "inactive: -0.812%"},
      {"smiles": "O=C(Nc1ccc2c(c1)N(C1CCCC1)C(=O)c1ccccc1S2)c1ccccc1", "IkBa stabilization activation": "inconclusive: -1.6% [signal inhibitor]"},
      {"smiles": "Cc1ccc(SCC(=O)Nc2ccc3oc(-c4cccc(C)c4)nc3c2)cc1", "IkBa stabilization activation": "inactive: 2.04%"},
      {"smiles": "COc1ccc(CCNC(=O)C(=O)NCC(c2cccs2)S(=O)(=O)c2ccccc2)cc1", "note": "(stereo not drawn)", "IkBa stabilization activation": "inconclusive: 5.7% [signal activator]"},
      {"smiles": "N#CC1=C(N)C(C#N)(C#N)[C@H](c2ccoc2)[C@H]2CN(Cc3ccccc3)CC=C12", "IkBa stabilization activation": "inactive: 6.49%"},
      {"smiles": "Cc1cccc(-c2noc(CN(C(C)C)S(=O)(=O)c3ccc(F)cc3)n2)c1", "IkBa stabilization activation": "inconclusive: 3.13% [signal inhibitor]"},
      {"smiles": "CC(=O)Nc1ccc(S(=O)(=O)N2CCN(CCCOc3cc(C)ccc3C)CC2)cc1", "IkBa stabilization activation": "inconclusive: 4.85% [signal inhibitor]"},
      {"smiles": "O=C(Cn1cnc2c(cnn2-c2ccccc2)c1=O)N1CCCc2ccccc21", "IkBa stabilization activation": "inconclusive: 6.02% [signal inhibitor]"},
      {"smiles": "CCCOc1ccc(-c2nnn(CC(=O)c3ccc4c(c3)OCCO4)n2)cc1", "IkBa stabilization activation": "inconclusive: 2.6% [signal inhibitor]"},
      {"smiles": "O=C(Cn1cc(SCc2ccccc2Cl)c2ccccc21)N1CCCCCC1", "IkBa stabilization activation": "inconclusive: 1.35% [signal inhibitor]"},
      {"smiles": "COc1ccc(OC)c(CNS(=O)(=O)c2ccc(-c3cc(C(F)(F)F)on3)s2)c1", "IkBa stabilization activation": "inconclusive: 7.51% [signal inhibitor]"},
      {"smiles": "CCC1CN(C(=O)NCc2ccc(F)cc2)c2ccccc2O1", "note": "(stereo not drawn)", "IkBa stabilization activation": "inconclusive: 2.81% [signal inhibitor]"},
      {"smiles": "Nc1nc(Cc2ccccc2)nc(Cc2ccccc2)c1-c1ccccc1", "IkBa stabilization activation": "inactive: -0.76% [at 11.4 µM, scaled: untreated 0%, proteasome inhibitor 100%]"},
      {"smiles": "COc1ccc(-n2c(=O)c3c4c(sc3n(Cc3cc(=O)n5c(C)cccc5n3)c2=O)CCC4)c(OC)c1", "IkBa stabilization activation": "inconclusive: -1.75% [signal inhibitor]"},
      {"smiles": "O=C(O)c1ccc(S(=O)(=O)c2ccc3c(c2)C(=O)N(CC2CCCO2)C3=O)cc1", "note": "(stereo not drawn)", "IkBa stabilization activation": "inactive: 1.12%"},
      {"smiles": "O=C(CN1CCSCC1)N1CCc2[nH]c3ccc(Br)cc3c2C1", "IkBa stabilization activation": "inconclusive: 2.12% [signal inhibitor]"},
      {"smiles": "CCc1ccc(CNC(=O)CSCc2cnn(-c3ccccc3)c2-n2cccc2)cc1", "IkBa stabilization activation": "inconclusive: 2.79% [signal inhibitor]"}
    ]}
  ]
}
